This is one part of the list.
System: T1, C. trachomatis L2/434/Bu expressing GFP (CTL2-GFP)
T1 construct: L2/434/Bu GFP intracellular growth in HeLa cells
Design: species or system HeLa; C. trachomatis total inclusion area by high-content imaging, normalised to DMSO
Conditions: total inclusion area; 28.5 h, 10 µM; inhibitor
How it was run: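 High-content images of fixed, Hoechst-stained infected cultures supply inclusion area and count (growth) plus nuclei number (viability), complementing bulk GFP/resorufin fluorescence. MIC determination is unchanged from the primary assay.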

Structure (SMILES) | % of control remaining
Cn1ccc(N2CCCC(NC(=O)c3scnc3C(C)(C)C)C2=O)n1 (stereo not drawn) [CBK305453] | 87.1028
O=C(c1cc(C(F)(F)F)cc(C(F)(F)F)c1)N1CCN(Cc2ccc3c(c2)OCO3)CC1 [CBK074756] | 61.846
Cn1ccc2cc(NS(=O)(=O)c3ccc4[nH]c(=O)[nH]c(=O)c4c3)ccc21 [CBK286364] | 91.1232
CC(=O)Nc1cccc(-c2cc(N3CCN(C(=O)c4ccco4)CC3)ncn2)c1 [CBK036959] | 93.8107
COc1ccccc1N1CCN(CC(O)COCc2ccc3c(c2)OCO3)CC1 (stereo not drawn) [CBK278323C] | 102.964
CC(C)[C@H](CO)Nc1cncc(-c2cccc3ccccc23)n1 [CBK065501] | 94.6941
O=C(O)c1ccc(NC(=O)C2CCN(S(=O)(=O)c3ccccc3)CC2)cc1 [CBK265181] | 78.4743
CN1C(=O)C(CC(=O)Nc2ccc(F)cc2)N(CCc2ccccc2)C1=S (stereo not drawn) [CBK263861] | 84.3096
CC1CCN(CCN2CCn3c2nc2ccccc23)CC1 [CBK265467B] | 82.0447
CC(C)(CO)CNc1cncc(-c2cccs2)n1 [CBK065599] | 87.3553
O=C1c2ccccc2CN1c1ccccc1 [CBK113189] | 51.86
CC(=O)Nc1cccc(NC(=O)CSc2ccc(C(F)(F)F)cc2[N+](=O)[O-])c1 [CBK264758] | 100.412
O=c1[nH]nc2c(S(=O)(=O)N3CCCC3)cccn12 [CBK288460] | 66.7185
CC(C)NC(=O)c1cc(C2CN(Cc3ccc4ncccc4c3)CCO2)nc2ccccc12 (stereo not drawn) [CBK285895] | 91.655
CCCC(=O)N1CCCCC1c1c(-c2onc(C)c2C)cnn1C (stereo not drawn) [CBK282259] | 74.5954
O=C(Nc1ccncc1)c1cc2cc(F)ccc2[nH]1 [CBK107346] | 91.2867
O=C(Nc1cccc(OCc2ccccc2)c1)c1cnc(-c2ccc(Cl)cc2)c(-c2ccco2)c1 [CBK037429] | 141.097
CC(C)CC(NC(=O)Cc1cccc(O)c1)c1ncnn1C (stereo not drawn) [CBK307050] | 81.6582
CC1(NC(=O)Cn2c(C(F)(F)F)nc3ccccc32)CCC1 [CBK281606] | 106.242
COc1ccc(CN2CCOCC2CC(=O)O)cc1Cn1cncn1 (stereo not drawn) [CBK307220] | 75.7427
COc1ccc(CCNc2nc(-c3ccccn3)cs2)cc1OC [CBK267260] | 117.396

Structure (SMILES) | % of control remaining
CS(=O)(=O)c1ccc(-c2ccc3c(c2)COC(C2CCN(C(=O)c4ccccc4O)CC2)O3)cc1 (stereo not drawn) [CBK158682] | 88.6138
Cc1nn(-c2ccccc2)c2c1C(c1cnn(C)c1)SCC(=O)N2 (stereo not drawn) [CBK287896] | 71.5217
Cc1ccn(CCC(=O)N2CCCC(c3cc4cccnc4[nH]3)C2)n1 (stereo not drawn) [CBK284927] | 102.815
c1ccc(CCNc2nc(-c3cccs3)cn3ccnc23)nc1 [CBK066633] | 94.3988
N#Cc1c(NC(=O)CSc2nnc(N)s2)sc2c1CCCC2 [CBK266649] | 101.219
Cc1ccnc2nc(C(=O)OC(C)C(=O)N3CCCCCC3)nn12 (stereo not drawn) [CBK306155] | 70.9117
O=c1oc2ccccc2c2c1nnn2CCCN1CCOCC1 [CBK261470C] | 90.8889
CC[C@H]1CN(C(=O)c2cccnc2)CC[C@H]1CC(=O)N1CCC(C(N)=O)CC1 [CBK288772] | 71.7979
COc1cc(NC(=O)c2cnc(-c3ccc(Cl)cc3)c(-c3ccco3)c2)cc(C(F)(F)F)c1 [CBK037570] | 83.7047
Cc1cc(C)c2nc(NC(=O)c3ccccc3)sc2c1 [CBK287308] | 100.248
COc1c(Cl)cc(Cl)cc1CNC1CCCc2c1cnn2C (stereo not drawn) [CBK304305C] | 81.0365
CC(=O)COc1cc(OCC(C)=O)c2c3c(c(=O)oc2c1)CCC3 [CBK307219] | 56.857
O=C(O)c1cc(-c2ccccc2)nc(Nc2nc3ccccc3s2)n1 [CBK264665] | 101.006
COc1cccc(-c2nn(CCC#N)cc2C(N)=O)c1 [CBK305835] | 104.015
COc1cccc(-c2nnn(CC(=O)O)n2)c1 [CBK068202] | 86.7033
O=[N+]([O-])c1ccc(COc2cccc(/C=N/Nc3nc4ccccc4s3)c2)cc1 [CBK262160] | 96.131
CS(=O)(=O)N(CC(=O)Nc1ccc(S(N)(=O)=O)cc1)Cc1ccc(Cl)cc1 [CBK267512] | 96.8392
CC(C)(C)c1ccc(-n2cc(-c3ccc(F)cc3)nn2)cc1 [CBK113112] | 78.2042
CCN(C(=O)Nc1ccc(-c2ccco2)cc1)C1CCOCC1 [CBK306916] | 86.5469
Cc1nc(O)cc(CCn2cc(-c3cncnc3)nn2)n1 [CBK306712] | 73.9645
O=S(=O)(Nc1ccc(C(O)(C(F)(F)F)C(F)(F)F)cc1)c1ccc(-c2ccon2)s1 [CBK062105] | 109.019

Structure (SMILES) | % of control remaining
OC1CCN(c2nccc(C(F)(F)F)n2)CC1 [CBK038372] | 20.7549
CCOc1cc(/C=C2\SC(=S)N(Cc3ccccc3)C2=O)cc(Cl)c1OC(=O)c1ccco1 [CBK265509] | 92.9603
CCN1CCCC1CNC(=O)C(=O)Nc1ccccc1OC (stereo not drawn) [CBK266865] | 87.5843
Cc1cccc(NC(=O)CC(C(=O)O)N2CCOCC2)c1 (stereo not drawn) [CBK266925] | 93.1622
COc1cccc(C(=O)NC(=S)Nc2ccc(C(=O)O)c(Cl)c2)c1 [CBK265065] | 108.391
CN1CCCCCC1c1nc(-c2ccccc2)nn1CCCO (stereo not drawn) [CBK307653] | 59.8541
O=C(c1c[nH]c(C(=O)N2CCN(c3ccccn3)CC2)c1)c1ccc(Cl)cc1Cl [CBK107419] | 77.1789
COc1nc(NCc2ccco2)nc(OC)n1 [CBK027479] | 61.0429
Cc1cc(-c2csc(CC(C)n3cc(Cl)cn3)n2)on1 (stereo not drawn) [CBK304700] | 82.9934
CC1CC(Nc2ccccc2)c2ccccc2N1C(=O)CCCC(=O)O (stereo not drawn) [CBK286960] | 98.7442
N#CCCN(C(=O)NC1CCc2ccccc21)C1CCCCC1 (stereo not drawn) [CBK156383] | 113.694
Cc1ccnn1CCC(=O)NC1(c2ccccc2F)CCCC1 [CBK283691] | 65.2439
Cc1ccc(-c2nnc(CNC(=O)C3(c4ccccc4)CC3)o2)s1 [CBK284642] | 65.8143
N#Cc1nccnc1S(=O)(=O)CCO [CBK023595] | 82.6535
CC(C)(C)c1oc(C(=O)O)cc1CN1CCCC1 [CBK287136] | 95.4823
CC(C)(O)CCN(Cc1ccc(-c2ccc(S(C)(=O)=O)cc2)nc1)C1CCN(C(=O)OC(C)(C)C)CC1 [CBK167517] | 99.2056
CCCCOc1ccc(-c2nnn(CC(=O)NCc3ccccc3)n2)cc1 [CBK068557] | 68.8728
COc1cccc(CNCc2ccco2)c1OCc1ccccc1F [CBK270271C] | 71.1519
COc1cccc(/C=N/NC(=O)C(=O)NCc2ccccn2)c1O [CBK262097] | 96.7031
c1cncc(-c2cncc(NCC3CCOCC3)n2)c1 [CBK037195] | 144.713
C=CCn1c(SCC(=O)O)nnc1-c1ccc([N+](=O)[O-])cc1 [CBK262736] | 94.4047

Structure (SMILES) | % of control remaining
COC(=O)C1(Cc2cc(-c3ccc(F)cc3)no2)CCOCC1 [CBK285329] | 99.409
Cc1c(S(=O)(=O)N2CCN(C)CC2)sc2ccc(C(C)C)cc12 [CBK170362] | 71.8492
COc1cccc(C(=O)Nc2nc3ccccc3n2Cc2ccccc2)c1OC [CBK299811] | 99.1553
Cc1nc2ccccc2c(C)c1C(=O)OCc1nc(N)nc(N(C)C)n1 [CBK295627] | 72.0907
O=C(NC1CCCCCC1)c1ccc(COCC(F)(F)C(F)F)cc1 [CBK059012] | 36.306
CN(C)C(=O)CN1CCC2(C/C=C/COc3ccccc3C(=O)NC[C@@H](Cc3ccccc3)NC2=O)CC1 [CBK292185] | 102.331
Cn1cc(Nc2nc(-c3ccc(CCNS(C)(=O)=O)cc3)cs2)cn1 [CBK305065] | 90.754
CC(CC(=O)N1CCC(c2cc3cccnc3[nH]2)CC1)n1cccn1 (stereo not drawn) [CBK285036] | 92.4923
CCOc1cc(CNc2nc[nH]n2)cc(Cl)c1OCc1ccccc1F [CBK288088] | 99.2111
CCCc1[nH]nc(O)c1Cc1ccc(Cl)cc1 [CBK075013] | 107.089
Cc1ccc(CSc2nnc(-c3ccc(NC(=O)/C=C/c4ccccc4)cc3)n2C)cc1 [CBK263850] | 98.129
Cc1ccccc1N1CC(C(=O)Nc2cccnc2)CC1=O (stereo not drawn) [CBK288138] | 100.13
COc1ccccc1C(=O)Nc1ccccc1C(=O)Nc1ccc(C(=O)O)cc1 [CBK268625] | 141.961
CCN(C(=O)c1cn2c3c(cccc3c1=O)CC2)C1CCOC(C)(C)C1 (stereo not drawn) [CBK307332] | 108.387
COc1ccc(S(=O)(=O)N(CCc2ccccc2)CC(=O)O)cc1C [CBK268505] | 102.851
COc1ccc(F)cc1-c1ccccc1CC1(C(=O)NCCc2ccccc2)CCOCC1 [CBK286424] | 91.7225
CC(C)c1ccc(C(C)NC(=O)Cn2cc(C(=O)NC3CCCCC3)ccc2=O)cc1 (stereo not drawn) [CBK286097] | 95.6874
Cn1c2ccccc2c2ncn(CCS)c(=O)c21 [CBK288412] | 87.4208
